Data from publication PMC10323775.
These are yes or no findings as the source states them, for the method shown. In cells and extracts the contact can be indirect. Some entries that bind do so weakly or less than the wild type.

Amino acid sequences for entries named in this document (tags omitted).
UniProt P31750: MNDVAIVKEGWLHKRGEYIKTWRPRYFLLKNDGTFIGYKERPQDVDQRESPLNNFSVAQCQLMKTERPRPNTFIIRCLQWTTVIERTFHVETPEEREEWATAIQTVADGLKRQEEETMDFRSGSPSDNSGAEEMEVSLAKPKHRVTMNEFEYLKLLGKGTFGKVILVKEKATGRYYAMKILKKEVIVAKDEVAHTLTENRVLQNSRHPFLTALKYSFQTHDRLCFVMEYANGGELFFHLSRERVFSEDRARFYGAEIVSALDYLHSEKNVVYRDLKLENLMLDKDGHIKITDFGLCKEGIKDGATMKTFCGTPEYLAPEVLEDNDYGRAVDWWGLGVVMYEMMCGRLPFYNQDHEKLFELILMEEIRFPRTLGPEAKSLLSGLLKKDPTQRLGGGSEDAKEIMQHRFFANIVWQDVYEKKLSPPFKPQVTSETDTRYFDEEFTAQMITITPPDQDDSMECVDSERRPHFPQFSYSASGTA
UniProt Q60823: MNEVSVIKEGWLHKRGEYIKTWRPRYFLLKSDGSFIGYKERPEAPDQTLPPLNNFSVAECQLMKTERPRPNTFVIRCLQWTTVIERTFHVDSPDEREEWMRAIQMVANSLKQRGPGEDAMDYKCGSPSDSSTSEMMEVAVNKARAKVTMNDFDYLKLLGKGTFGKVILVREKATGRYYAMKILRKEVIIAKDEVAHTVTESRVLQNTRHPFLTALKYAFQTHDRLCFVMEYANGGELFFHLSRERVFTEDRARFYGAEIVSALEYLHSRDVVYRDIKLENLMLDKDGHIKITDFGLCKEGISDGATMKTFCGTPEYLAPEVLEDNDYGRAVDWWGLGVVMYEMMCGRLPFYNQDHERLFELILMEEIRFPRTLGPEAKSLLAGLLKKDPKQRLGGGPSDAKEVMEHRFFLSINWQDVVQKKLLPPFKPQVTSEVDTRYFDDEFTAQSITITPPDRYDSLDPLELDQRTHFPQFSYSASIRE
UniProt Q9JHG7: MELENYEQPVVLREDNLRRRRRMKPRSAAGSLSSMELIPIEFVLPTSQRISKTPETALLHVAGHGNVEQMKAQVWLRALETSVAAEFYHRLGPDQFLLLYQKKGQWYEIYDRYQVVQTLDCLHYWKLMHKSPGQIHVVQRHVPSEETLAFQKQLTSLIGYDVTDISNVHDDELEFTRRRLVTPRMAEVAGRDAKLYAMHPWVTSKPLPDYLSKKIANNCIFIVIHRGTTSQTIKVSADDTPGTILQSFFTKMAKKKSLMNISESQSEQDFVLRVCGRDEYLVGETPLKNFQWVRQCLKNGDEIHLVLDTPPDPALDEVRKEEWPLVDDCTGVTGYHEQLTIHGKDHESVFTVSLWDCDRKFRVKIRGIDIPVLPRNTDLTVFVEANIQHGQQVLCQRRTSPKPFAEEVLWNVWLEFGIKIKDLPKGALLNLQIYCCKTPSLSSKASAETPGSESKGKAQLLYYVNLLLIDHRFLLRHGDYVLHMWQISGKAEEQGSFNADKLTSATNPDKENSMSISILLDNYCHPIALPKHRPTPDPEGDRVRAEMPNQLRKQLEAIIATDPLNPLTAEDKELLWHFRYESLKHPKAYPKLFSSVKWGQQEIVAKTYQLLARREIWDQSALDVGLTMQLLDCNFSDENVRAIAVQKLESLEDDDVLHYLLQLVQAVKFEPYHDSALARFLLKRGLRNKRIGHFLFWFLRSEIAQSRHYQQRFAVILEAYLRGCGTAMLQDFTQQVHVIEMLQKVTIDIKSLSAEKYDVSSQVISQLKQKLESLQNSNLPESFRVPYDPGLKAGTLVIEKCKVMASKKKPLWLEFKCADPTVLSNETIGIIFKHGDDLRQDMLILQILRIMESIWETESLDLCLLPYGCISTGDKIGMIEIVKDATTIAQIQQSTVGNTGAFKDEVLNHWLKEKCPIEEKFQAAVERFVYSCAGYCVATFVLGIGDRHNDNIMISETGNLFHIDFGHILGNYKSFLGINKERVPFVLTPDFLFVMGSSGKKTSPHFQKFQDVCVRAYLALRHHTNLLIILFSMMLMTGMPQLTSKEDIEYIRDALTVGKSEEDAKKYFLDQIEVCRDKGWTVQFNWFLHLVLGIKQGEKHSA
UniProt A3KGF7: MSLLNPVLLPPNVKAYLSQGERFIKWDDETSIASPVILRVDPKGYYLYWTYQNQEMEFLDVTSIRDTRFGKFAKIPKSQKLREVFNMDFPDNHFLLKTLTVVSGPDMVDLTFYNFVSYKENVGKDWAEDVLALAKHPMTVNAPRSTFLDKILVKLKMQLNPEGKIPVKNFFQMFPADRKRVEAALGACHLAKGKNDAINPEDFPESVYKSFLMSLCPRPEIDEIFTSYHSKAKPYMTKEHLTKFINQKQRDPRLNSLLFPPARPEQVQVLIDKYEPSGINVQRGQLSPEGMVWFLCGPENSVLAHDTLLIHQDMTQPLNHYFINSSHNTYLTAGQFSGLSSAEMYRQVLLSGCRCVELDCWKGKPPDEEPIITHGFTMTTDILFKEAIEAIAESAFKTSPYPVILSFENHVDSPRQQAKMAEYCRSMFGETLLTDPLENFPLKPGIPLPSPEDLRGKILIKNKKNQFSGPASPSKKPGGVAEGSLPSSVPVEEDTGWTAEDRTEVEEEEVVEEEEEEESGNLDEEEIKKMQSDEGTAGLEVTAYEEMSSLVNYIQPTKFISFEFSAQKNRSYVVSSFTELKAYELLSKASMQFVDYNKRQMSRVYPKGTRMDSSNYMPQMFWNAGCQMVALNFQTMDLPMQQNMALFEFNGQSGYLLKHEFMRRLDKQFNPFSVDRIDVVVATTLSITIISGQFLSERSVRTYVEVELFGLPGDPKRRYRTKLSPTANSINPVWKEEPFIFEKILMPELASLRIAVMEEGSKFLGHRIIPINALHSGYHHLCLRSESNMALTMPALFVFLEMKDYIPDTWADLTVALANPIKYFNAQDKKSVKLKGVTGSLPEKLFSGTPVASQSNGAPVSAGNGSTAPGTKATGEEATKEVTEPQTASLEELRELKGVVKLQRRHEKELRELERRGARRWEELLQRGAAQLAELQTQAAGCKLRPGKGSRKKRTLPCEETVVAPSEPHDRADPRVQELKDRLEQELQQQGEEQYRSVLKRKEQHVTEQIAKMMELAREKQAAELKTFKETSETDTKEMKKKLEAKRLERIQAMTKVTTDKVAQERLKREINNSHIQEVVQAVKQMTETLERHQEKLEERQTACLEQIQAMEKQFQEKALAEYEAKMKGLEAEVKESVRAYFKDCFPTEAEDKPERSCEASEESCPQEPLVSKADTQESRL

How the values were obtained:
Test in all cases: co-IP; tagged proteins overexpressed in HEK293T cells; lysis in IP buffer (50 mmol/L Tris, 150 mmol/L NaCl, 2 mmol/L EDTA, 1% NP-40); anti-FLAG M2 affinity gel, 4 °C overnight; three washes; immunoblot
[1] = molecular target: AKT1 (UniProt P31750)
[2] = molecular target: AKT2 (UniProt Q60823)
[3] = molecular target: PIK3Cγ (UniProt Q9JHG7)
[4] = molecular target: PLCβ2 (UniProt A3KGF7)
[5] = molecular target: T1, complement 5a receptor 1 (C5aR1) (UniProt P30993)
T1 sequence: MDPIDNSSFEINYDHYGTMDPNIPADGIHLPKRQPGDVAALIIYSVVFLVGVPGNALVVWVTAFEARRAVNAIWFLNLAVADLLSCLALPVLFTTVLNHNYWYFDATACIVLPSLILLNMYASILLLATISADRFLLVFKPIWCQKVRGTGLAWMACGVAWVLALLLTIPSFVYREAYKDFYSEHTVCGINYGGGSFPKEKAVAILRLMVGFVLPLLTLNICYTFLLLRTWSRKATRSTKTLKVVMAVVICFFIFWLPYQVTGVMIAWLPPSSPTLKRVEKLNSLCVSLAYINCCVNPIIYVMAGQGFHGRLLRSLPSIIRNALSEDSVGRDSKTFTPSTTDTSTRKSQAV

binding [1]: no binding
binding [2]: no binding
binding [3]: no binding
binding [4]: binds
binding [5]: binds
B1: guanine nucleotide-binding protein subunit alpha-12 (GNA12) (protein, UniProt P27600 1-379)
chain: MSGVVRTLSRCLLPAEAGARERRAGAARDAEREARRRSRDIDALLARERRAVRRLVKILLLGAGESGKSTFLKQMRIIHGREFDQKALLEFRDTIFDNILKGSRVLVDARDKLGIPWQHSENEKHGMFLMAFENKAGLPVEPATFQLYVPALSALWRDSGIREAFSRRSEFQLGESVKYFLDNLDRIGQLNYFPSKQDILLARKATKGIVEHDFVIKKIPFKMVDVGGQRSQRQKWFQCFDGITSILFMVSSSEYDQVLMEDRRTNRLVESMNIFETIVNNKLFFNVSIILFLNKMDLLVEKVKSVSIKKHFPDFKGDPHRLEDVQRYLVQCFDRKRRNRSKPLFHHFTTAIDTENIRFVFHAVKDTILQENLKDIMLQ
